The target in the test is human mTORC2 core complex (SpyCatcher003-mTOR, Flag-Rictor, HA-mLST8, mSin1-HA) (human, UniProt P42345;Q6R327;Q9BVC4;Q9BPZ7). Description: SEC. On the technique in general: SEC sorts molecules by how far they enter the pores of the column.

B1: inactive human kinase-dead Akt1 (K179M), FLAG-tagged, dephosphorylated (enzyme)
chain: not shown
B1: the binding result is “binds”.

(Values after PMC9440446 (The Journal of Biological Chemistry, 2022).)
